Data published in article PMC4782136 (Scientific Reports, 2016).

Tested on: influenza A/Puerto Rico/8/34 (H1N1)
Test: microbe, parasite or virus in culture
Settings: H1N1, read-out: IC50 ± SD, H1N1

## NC(=O)c1ncn([C@@H]2O[C@H](CO)[C@@H](O)[C@H]2O)n1 [Ribavirin, ribavirin]
  IC50: 12.85 ± 0.08 µM
